# In all, about 33,000 sequences were measured (“E-score (-0.5 to 0.5)”: median about -0.01, highest 2% from about 0.26 on). This is one part of the list.
# Molecular target: Ste12 (UniProt P13574)
# Assay: PBM E-score (8-mer binding enrichment) (E-score (-0.5 to 0.5)); higher = stronger / more preferred TF binding; most listed sequences are background and not binding sites
# Conditions: protein concentration: 200 nM; construct: GST-DNA-binding domain
# Procedure, shortened: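 Bound GST-tagged yeast transcription factors, applied at about 100-200 nM to double-stranded universal all-10-mer Agilent arrays, were detected with fluorescent anti-GST. Scans were normalised with masliner. A modified Wilcoxon-Mann-Whitney statistic, the E-score, was assigned to each ungapped eight-base word pooled with its reverse complement by the Universal PBM Analysis Suite.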
row,Sequence,PBM E-score
1,CGGGGCAA,-0.0685
2,CCCGTACG,-0.163
3,ACGACTGG,-0.0592
4,CCTGCCTC,-0.0655
5,CCTTCAAC,0.0592
6,ACACGAAC,-0.00019
7,CGTTTCAC,0.453
8,CACTAACA,0.0628
9,ATCGTCAT,0.215
10,TCAGCCCA,-0.0557
11,CATCACTC,-0.116
12,AGTGAGCC,-0.0896
13,GATCAAAC,0.179
14,AGTTGACG,0.019
15,GAAGCCTA,0.018
16,CTGTCACC,-0.114
17,CTTTAAAG,-0.0155
18,CATGTCAG,-0.053
19,GCTTGGCC,-0.0163
20,CTAGAATC,0.00493
21,AATAGTCC,-0.124
22,GAACCCCC,-0.374
23,CCCTCAGA,0.0505
24,ATGCCTCC,-0.0978
25,GGGAGGAC,0.0558

row,Sequence,PBM E-score
1,CGGACACA,-0.0398
2,ACCGAAGT,-0.0577
3,AGTAAACC,0.026
4,CGACGTCA,-0.146
5,CAATTAAA,0.23
6,CACGGACG,-0.0618
7,CGCTTGCC,-0.062
8,TTAGAGAA,-0.105
9,CAGGATCC,0.00474
10,AATTTCCT,0.0427
11,AGACTATA,0.1
12,CCGGTCAG,0.0143
13,ATCCGGTC,-0.0391
14,GTCCATAA,-0.172
15,AATATCCT,0.114
16,CATCTAAA,0.124
17,AAATGCCT,0.025
18,GACATGTA,-0.0417
19,ACTGCAAC,-0.0527
20,GCCTAGCA,-0.254
21,GCCGAAGA,-0.106
22,GGGGCAAA,0.114
23,TGCCTAAA,0.0544
24,CAACGCTG,0.0654
25,AGCGTTTA,-0.122

row,Sequence,PBM E-score
1,CGCTGCCG,-0.0077
2,TAACTAAA,0.245
3,GACGGGCC,-0.203
4,CCGCGGCC,0.174
5,ACGTCTTA,-0.0959
6,AGAATCTG,-0.0532
7,GCTAAAAA,0.17
8,CACGCATA,-0.158
9,CAGAGTAC,-0.127
10,GCGCATAA,-0.0755
11,ATCTTACC,-0.00834
12,GCATAGGA,-0.135
13,ATCTCCCA,0.0349
14,ATTAGGTA,0.00656
15,GCGCCGCA,0.0532
16,GAAGTGAA,0.124
17,GTCCGCTA,-0.102
18,AGCGCCCA,-0.0404
19,ACTAGGTG,-0.199
20,GGGACGGA,-0.0613
21,AAGTACGA,0.0713
22,CGGAACAG,0.0291
23,GAAGCCGC,-0.124
24,TCCCACCA,-0.171
25,GACTGCTC,-0.132

row,Sequence,PBM E-score
1,CAGGCATA,-0.161
2,GATAGCAC,-0.122
3,AGAATCAG,0.11
4,ATGTATCA,0.344
5,GAGTAATC,-0.0473
6,GTAAATCA,0.227
7,AAAATGTT,0.139
8,GCTGGACC,-0.196
9,AACCGATT,0.00541
10,CGAACCAC,0.089
11,AGTGCTCC,-0.332
12,ACTGCATA,0.0528
13,CCGCCCAG,-0.00964
14,GACTGCTA,-0.132
15,ATTTAGCG,-0.0176
16,ACCACAAC,0.136
17,CCCAGACC,-0.0973
18,CGAGTCCA,-0.105
19,GAGCGAAA,0.251
20,CTGGGCTC,-0.306
21,ACTTAACT,0.0917
22,CTCGGGCC,0.0292
23,CAATGGAC,0.0147
24,ACTCGTAT,0.0337
25,AGAGACCC,-0.136

row,Sequence,PBM E-score
1,GACCGTGC,-0.144
2,GTGAGCGA,-0.0198
3,AGGCTGAA,0.0234
4,CCGTCTCC,-0.191
5,CAGGAGCG,-0.0463
6,AAGGGTGA,0.0401
7,CACACTAA,0.18
8,GGACTCAA,-0.0497
9,ATAACGAG,-0.0948
10,GGAACGCA,0.0551
11,GTAACAGA,0.334
12,CGTTACAA,0.314
13,CACTTAGA,-0.124
14,CCCGCGAC,-0.0819
15,AGTTAGCG,0.0556
16,CAGTGACA,-0.183
17,ATATAAAT,0.279
18,AACCCAAA,0.198
19,ACTAGCTG,-0.0657
20,GAGCGGCA,-0.0959
21,CAAGCCCC,0.0459
22,ACTAGATC,-0.0559
23,ATGCGTGG,-0.138
24,ACCTAACG,-0.137
25,ATCCGTGA,-0.0469

row,Sequence,PBM E-score
1,ATCTAAGG,-0.0459
2,GACCTCGA,0.0486
3,CCCGGCAG,-0.0392
4,CAAGGATC,-0.0652
5,AGACCGTA,-0.0932
6,TTGAACAA,-0.0612
7,AAAGTGTA,0.135
8,TCGCTTAA,0.0471
9,CGCCCTAG,0.00597
10,CACGTGGA,-0.00567
11,AACTGTCC,0.0193
12,ATGACGCG,0.146
13,CTCACTTA,-0.109
14,ACGAAAGA,0.125
15,CTCGTAAA,0.023
16,CATGTTTC,0.4
17,TGATTGAA,0.0929
18,AGGCCCGA,-0.064
19,ATTTATCA,0.148
20,AATCCTGT,0.102
21,AAGTCCTC,-0.188
22,CAAGCTCA,-0.092
23,AGCGGTGG,-0.167
24,CGATTATA,0.0996
25,ACTTTAAA,0.275

row,Sequence,PBM E-score
1,AGACGTGG,-0.0816
2,AGTGCTCA,-0.238
3,AAAGCGGC,0.054
4,CTCTCTTA,0.095
5,CGAAGTTA,0.0874
6,CCTCACCG,-0.0545
7,CCCCCGAC,0.00152
8,ACCGAGGT,-0.144
9,CGAATAAC,-0.0358
10,GTGTTCAA,-0.0179
11,GAGCCAGC,-0.152
12,TATGAGCA,-0.165
13,ATAGAGAG,-0.339
14,TGTTGCAA,0.211
15,ACTTTTCC,0.257
16,GGTATACC,-0.0247
17,CACCGAGC,0.0891
18,GGGGACCA,-0.0224
19,AGTGTTCC,-0.0532
20,CCATGCAC,-0.22
21,CGTTATTC,0.00284
22,AGCATGTA,-0.227
23,GCTGAGAA,-0.119
24,CTTATGAC,-0.0278
25,GAATTCGA,-0.11

row,Sequence,PBM E-score
1,ATCGAGGC,-0.0693
2,AGGAAAAG,0.147
3,GTCTGTCA,-0.0514
4,CCCTCTGA,-0.0968
5,CATCGTCA,0.0528
6,GTGGGCCA,-0.221
7,GTTCAGCA,-0.0585
8,ACGCCCGC,-0.0628
9,AACTTTCG,-0.123
10,GATGACAC,0.168
11,CAACGATG,-0.162
12,AATGGATA,0.0132
13,ACTGTTAA,-0.0538
14,CTCTAGAG,-0.162
15,ACAGCTCT,-0.144
16,AATCTGCG,0.0584
17,AACAGTAA,0.134
18,ACTAGAGT,-0.103
19,CCCTTTAC,-0.0978
20,AAAAAGTA,0.221
21,ACACGTGA,0.00701
22,TAACTCGA,0.187
23,AACTTGTC,0.0762
24,CAGTAGCG,-0.0725
25,CTAGGTAA,-0.177

row,Sequence,PBM E-score
1,ACCGCTAG,-0.25
2,AAACGAGG,0.123
3,ACTGCGAC,0.186
4,TATATTAA,0.22
5,AGATGTAT,0.056
6,ACAGAATC,-0.0849
7,CACCTGCC,0.0292
8,GGTCCAAC,-0.0961
9,AATCGCGG,0.0746
10,GACTGAAC,-0.0372
11,CGTCAGGA,-0.223
12,GATGTACA,0.0128
13,ACCTGGTG,-0.0856
14,AAAGGAGT,-0.0289
15,GACGTCGC,-0.148
16,CATGGGCC,-0.104
17,AAAACCTT,0.142
18,GACAAGAA,0.0759
19,CCCAACTC,0.127

# Reference: the supplement of paper PMC3334620
